Measured values as given in PMC3562233 (PLoS ONE, 2013).
Read-outs that look alike come from different tables or passages of the source.

Experiments:
[1] = system: yeast strain containing the empty plasmid; format: cell-based
[2] = system: MDCK cells

Row | SMILES | effect on growth of the yeast strain containing the empty plasmid ([1]; amantadine at 0.3, 1 or 3 µM, compound 6 at different concentrations, 40 h) | effect on growth of the yeast strain containing the empty plasmid [1] | cytotoxicity towards uninfected MDCK cells [2]
1 | NC12CC3CC(CC(C3)C1)C2 [Amantadine, reference compound] | not affected |  | 
2 | CC(NC(=S)NC(=O)C=Cc1ccco1)C12CC3CC(CC(C3)C1)C2 (stereo not drawn) [Compound 6, N-(([1-(1-adamantyl)ethyl]amino)carbonothioyl)-3-(2-furyl)acrylamide] |  | no effect | very low cytotoxicity
3 | Cc1nc(C23CC4CC(CC(C4)C2)C3)c[nH]1 [Compound 10, 5-(adamantan-1-yl) -2-methyl-1H-imidazole] |  |  | very low cytotoxicity
4 | N=C(N)NC(=O)c1nc(Cl)c(N2CCCCCC2)nc1N [Compound 14, Hexamethylene amiloride] |  |  | more cytotoxic
5 | CCSC1=NCN(C2CCCCCCC2)CN1 [Compound 34, 3-cyclooctyl-6-(ethylthio)-1,2,3,4-tetrahydro-1,3,5-triazine] |  |  | very low cytotoxicity
